Laboratory results: PubChem BioAssay (NCATS)
Values joined by “and” are separate entries in the source; they are usually repeats but may differ in a detail not shown here. Identical values can stand only once. Inconclusive results, whose numbers are uncertain, are shown with a selection of clear calls. Potencies of inconclusive entries are doubtful fits and often do not repeat. Active and inactive are the calls of the source. The call rests on the fitted dose curve; in most records, active means well fitted activation curve with a large enough effect in the main read-out, with a control signal flat (not every such curve was filed as active); inconclusive means small, poorly fitted or top-dose-only effect, or effect the other way, or a change in a side signal; inactive means flat fitted curve, though single readings scatter.

Biological target: 3',5'-cyclic-AMP phosphodiesterase 4B (Homo sapiens) (UniProt Q07343)
Test: qHTS Assay for Inhibitors of PDE-IV (AID 607)
Conditions: HEK293 ACTOne CNG channel cells, membrane potential fluorescence; series mostly up to 22.9 µM
Outline: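 HEK293 ACTOne cells with CNG channel (1000/well), endogenous PDE4; membrane potential dye, compounds up to 22.9 uM final. Fluorescence Ex 535/Em 590; RO 20-1724 (100 uM final) as reference.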
Potency means the concentration at half of the fitted maximal effect; tags describe the fitted curve by direction and shape.

UniProt Q07343, sequence (Q07343 whole entry, looked up): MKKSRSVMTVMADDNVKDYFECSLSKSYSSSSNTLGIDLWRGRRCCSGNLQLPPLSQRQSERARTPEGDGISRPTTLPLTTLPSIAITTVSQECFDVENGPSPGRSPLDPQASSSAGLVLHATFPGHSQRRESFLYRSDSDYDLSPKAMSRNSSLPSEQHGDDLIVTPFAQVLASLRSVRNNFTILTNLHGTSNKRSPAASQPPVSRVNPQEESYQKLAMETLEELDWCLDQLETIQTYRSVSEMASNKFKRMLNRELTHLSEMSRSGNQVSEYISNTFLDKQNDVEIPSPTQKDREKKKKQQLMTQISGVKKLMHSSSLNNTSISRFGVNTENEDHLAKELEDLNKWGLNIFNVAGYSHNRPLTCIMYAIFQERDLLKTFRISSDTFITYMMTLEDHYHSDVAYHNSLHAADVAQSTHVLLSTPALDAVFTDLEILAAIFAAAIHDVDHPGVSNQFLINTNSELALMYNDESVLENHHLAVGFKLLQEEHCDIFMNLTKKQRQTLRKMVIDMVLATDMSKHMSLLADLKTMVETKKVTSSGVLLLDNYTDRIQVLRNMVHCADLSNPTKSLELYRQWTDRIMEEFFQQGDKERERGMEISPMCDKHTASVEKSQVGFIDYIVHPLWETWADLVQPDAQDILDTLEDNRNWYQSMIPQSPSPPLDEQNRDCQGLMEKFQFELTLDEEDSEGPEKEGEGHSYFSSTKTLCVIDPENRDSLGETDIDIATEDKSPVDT

Row | SMILES | Potency
1 | O=c1cc(-c2ccccc2)oc2cc(O)c(O)c(O)c12 | inconclusive: 19 µM [inhibitor, single point]
2 | O=c1[nH]c2ccccc2n1CCCN1CCN(C(c2ccccc2)c2ccccc2)CC1 | inconclusive: 5.01 µM [activator, partial curve, poor fit]
3 | C[C@H](Cc1ccc(O)c(O)c1)[C@@H](C)Cc1ccc(O)c(O)c1 | inconclusive: 2.51 µM [inhibitor, full curve, poor fit]
4 | CN1CCC(=C2c3ccccc3CCc3sccc32)CC1 | inconclusive: 12 µM [activator, partial curve]
5 | O=c1c(O)c(-c2ccc(O)c(O)c2)oc2cc(O)ccc12 | inactive
6 | Cn1ccc2cc3c(cc21)CCN3C(=O)Nc1cccnc1 | inconclusive: 19 µM [inhibitor, single point]
7 | O=c1c(-c2ccc(O)cc2)coc2cc(O)ccc12 | inactive
8 | O=C(O)c1cc([N+](=O)[O-])ccc1NCCCc1ccccc1 | inconclusive: 15.1 µM [rising, partial curve, poor fit]
9 | CC(=O)NCCc1c[nH]c2ccc(O)cc12 | inactive
10 | CN1CCC[C@@H]1c1cccnc1 | inconclusive: 2 µM [rising, partial curve, poor fit]
11 | O=C1C[C@@H](c2ccc(O)cc2)Oc2cc(O)cc(O)c21 | inactive and inconclusive: 19 µM [inhibitor, single point]
12 | COc1ccc(-c2coc3cc(O)cc(O)c3c2=O)cc1 | inconclusive: 19 µM [inhibitor, single point]
13 | O=C(O)c1cccnc1Nc1cccc(C(F)(F)F)c1 | inconclusive: 2.39 µM [rising, full curve]
14 | OC(CCN1CCCCC1)(c1ccccc1)c1ccccc1 | inconclusive: 15.1 µM [activator, single point]
15 | CC1(C)CCC2=C(O1)c1ccccc1C(=O)C2=O | inactive
16 | CN1CCN(C2=Nc3cc(Cl)ccc3Nc3ccccc32)CC1 | inconclusive: 15.1 µM [inhibitor, partial curve]
